Assay results as given in PubChem BioAssay AID2101 (National Center for Advancing Translational Sciences (NCATS), 2009).
In all, about 330,000 compounds went through this assay and about 300 (0.091%) were called active. Inconclusive results, whose numbers are uncertain, are shown with a selection of clear calls. Calls follow the shape of the dose curve; as a rule, active = well fitted inhibition curve with a large enough effect; inconclusive = small, poorly fitted or top-dose-only effect, or effect the other way, or another doubt; inactive = no such curve, though single readings can be large or run the other way. No potency is given beside an inconclusive call; the fits are too rough.

target: Lysosomal acid glucosylceramidase (Homo sapiens) (UniProt P04062); assay: qHTS Assay for Inhibitors and Activators of N370S glucocerebrosidase as a Potential Chaperone Treatment of Gaucher Disease; conditions: N370S GC spleen homogenate, 4MU-glucoside fluorescence; activity change, negative = inhibition: at 59.4 µM (top of the series) unless noted;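 as to activity change, negative = inhibition: 0% = full enzyme activity and -100% = no enzyme basal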
Potency is read from the fitted curve at half-maximal effect.

Structure (SMILES) | Potency | activity change, negative = inhibition
CS(C)(=O)=O | inactive | –
O=C(NCCc1c[nH]c2ccccc12)C1CCN(S(=O)(=O)c2ccc(F)cc2)CC1 | inconclusive [inhibitor, single point] | –
O=C(CN1CCOc2ccccc21)NCc1ccc(Cl)cc1 | inconclusive [inhibitor, single point] | –
CCOc1ccccc1N(CC(=O)Nc1ccc(OC)cc1)S(=O)(=O)c1ccccc1 | inconclusive [activator, single point] | –
CCOC(=O)c1oc2ccccc2c1NC(=O)COc1ccc(F)cc1 | inconclusive [activator, partial curve] | –
CCNc1ncc2nc(C)c(=O)n(C)c2n1 | inconclusive [activator, partial curve] | –
Cc1ccc(C)c(CN2C(=O)COc3ccc(C(=O)c4ccccc4C(=O)O)cc32)c1 | inconclusive [activator, partial curve] | –
Cc1ccc2nc(-c3ccc(N)cc3)sc2c1S(=O)(=O)O | inconclusive [activator, partial curve] | –
COc1cc(/C=C/c2nc3ccccc3c(=O)[nH]2)ccc1OC(F)F | inactive | –
COc1cc(C(=O)OCc2csc(CC(=O)Nc3ccccc3C)n2)ccc1OCC(C)C | inconclusive [activator, single point] | –
COc1ccc(N=c2ssnc2Cl)cc1 | inactive | –
COc1ccc(C(CC(=O)N2CCCCC2)c2c(OC)cc(OC)c3ccc(=O)oc23)cc1 (stereo not drawn) | inconclusive [activator, single point] | –
Fc1ccc(Nc2nc(-c3cccnc3)nc3ccccc23)cc1 | inconclusive [inhibitor, partial curve] | –
CCc1ccc(N2CC(C(=O)N/N=C/c3ccccc3OC)CC2=O)cc1 (stereo not drawn) | inconclusive [activator, single point] | –
Fc1cccc(/C=N/Nc2ncnc3nc[nH]c23)c1 | inconclusive [activator, partial curve] | –
COc1ccc(CCNCc2c(-c3ccccc3)n(C)c3ccccc23)cc1 | inconclusive [inhibitor, partial curve] | –
Cc1[nH]c2ccc(F)cc2c1CCN(Cc1ccncc1)C(=S)Nc1ccccc1 | inconclusive [inhibitor, partial curve, poor fit] | –
CCN(CC)C(=O)c1cc(S(=O)(=O)N2CCCCC2)c[nH]1 | inconclusive [inhibitor, single point] | –
COc1ccc(NC(=O)c2cnn(-c3ccccc3)c2C)cc1OC | inactive | –
CNC(=O)c1c(NC(=O)c2ccco2)sc2c1CCC2 | inconclusive [activator, single point] | –
O=C(c1cccs1)N1CCc2ccccc21 | inactive | –
Cc1noc(NS(=O)(=O)c2ccc(NC(=O)c3ccoc3C)cc2)c1C | inactive | –

Structure (SMILES) | Potency | activity change, negative = inhibition
O=C(NCC(c1cccs1)N1CCOCC1)C1CCN(S(=O)(=O)c2ccccc2C(F)(F)F)CC1 (stereo not drawn) | inconclusive [inhibitor, single point] | –
Cc1cc(NCCO)nc(-n2nc(C)cc2C)n1 | inconclusive [inhibitor, single point] | –
CCN(CC)CCCNC(=O)CN1C(=O)CSc2ccc(S(=O)(=O)N3CCOCC3)cc21 | inconclusive [inhibitor, full curve, poor fit] | –
CCc1ccc2c(c1)[C@H]1OCC[C@H]1[C@@H](c1cccs1)N2 | inconclusive [inhibitor, full curve, poor fit] | –
O=C(O)C(Oc1ccc2c(c1)oc(=O)c1ccccc12)c1ccccc1 (stereo not drawn) | inconclusive [activator, partial curve] | –
CCN1CCN(C(=O)c2ccc3c(=O)n(CCc4ccccc4)c(=O)[nH]c3c2)CC1 | inconclusive [activator, single point] | –
Cc1cc(NCCCN2CCOCC2)n2c(nc3ccccc32)c1C#N | inconclusive [activator, partial curve] | –
CN(CC(=O)Nc1cccc(F)c1)CC(=O)Nc1ccccc1[N+](=O)[O-] | inconclusive [activator, single point] | –
O=C(CN1C(=O)CCS(=O)(=O)c2ccccc21)Nc1ccc(Cl)cc1 | inconclusive [activator, partial curve] | –
Cc1ccc2c(c1)c1c(c(=O)n(-c3ccccc3C)c(=O)n1CC(=O)NCC1CCCO1)n2C (stereo not drawn) | inconclusive [activator, partial curve] | –
Cc1cccc(C(=O)n2c(=S)nc3ccccn32)c1 | inactive | –
COc1ccc2c(c1)CC/C(=C\c1ccc(OC)c(Cn3nc(C)cc3C)c1)C2=O | inconclusive [activator, partial curve] | –
O=C(NNc1nc2cc3c(cc2s1)OCO3)c1ccccc1 | – | inconclusive: 30.6% [activator]
Cc1ccc(OCC(=O)NNC(=O)c2ccc(-n3cncn3)c([N+](=O)[O-])c2)cc1 | inconclusive [inhibitor, partial curve, poor fit] | –
Cc1cc(C)cc(N(CC(=O)NC2CCCCCC2)S(=O)(=O)c2c(C)[nH]c(=O)[nH]c2=O)c1 | active: 0.708 µM | –
FC(F)(F)c1ccc(-c2nnc(-c3cccnc3)o2)cc1 | inactive | –
CC(C)c1cc(NCCOCCO)n2c(nc3ccccc32)c1C#N | inconclusive [activator, partial curve] | –
Cc1ccc(C)c(NC(=O)CSc2cccc3cccnc23)c1 | inconclusive [activator, single point] | –
Cc1c(OCC(=O)NCCCN2CCOCC2)ccc2c(-c3ccccc3)cc(=O)oc12 | inconclusive [inhibitor, full curve, poor fit] | –
CCN1CCN(Cc2c(O)ccc3c(C)cc(=O)oc23)CC1 | inconclusive [activator, partial curve] | –
O=S(=O)(c1ccc(OCC2CO2)cc1)c1ccc(OCC2CO2)cc1 (stereo not drawn) | inconclusive [inhibitor, partial curve] | –
